From the supplement of paper PMC10326071
This is one part of the list. Most values come without repeats; read them as rough.

Experiments:
[1] = system: SARS-CoV-2 nsp3 SARS-unique domain core (SUD-core, nsp3 residues 413-676); experiment: dissociation rate constant koff (BLI); higher = faster dissociation; settings: 100 µM; 25 °C
[2] = system: SARS-CoV-2 nsp3 SARS-unique domain core (SUD-core, nsp3 residues 413-676); experiment: apparent dissociation constant Kd (single-concentration BLI fit); higher = weaker binding; settings: 100 µM; 25 °C

| SMILES | dissociation rate constant koff [1] | apparent dissociation constant Kd [2] |
| --- | --- | --- |
| CC(C)(C)Cn1c(N)nc2ccc(-c3[nH]c(C(C)(C)C)nc3-c3ccc(F)cc3)nc21 | 0.365 s⁻¹ | 3620 µM |
| C[C@@H]1O[C@@H](O[C@@H]2[C@@H](O)[C@H](OCCc3ccc(O)c(O)c3)O[C@H](CO)[C@H]2OC(=O)/C=C/c2ccc(O)c(O)c2)[C@H](O)[C@H](O)[C@H]1O | 0.928 s⁻¹ | 37.6 µM |
| CCCCCCCC/C=C/CCCCCCCC(=O)OC[C@H]1O[C@@H](n2ccc(N)nc2=O)[C@@H](O)[C@@H]1O | 0.0128 s⁻¹ | 121 µM |
| NCC1CCC(CNc2nc(NCc3ccccc3OC(F)(F)F)ncc2[N+](=O)[O-])CC1 (stereo unspecified) | 0.337 s⁻¹ | 2810 µM |
| N#C[C@H]1[C@H](O)[C@@H](CO)O[C@H]1n1ccc(N)nc1=O | 0.0152 s⁻¹ | 34.8 µM |
| O=C(Nc1cccnc1)c1cc(C(=O)c2c(F)cccc2Br)c[nH]1 | 1.04 s⁻¹ | 1100 µM |
| OC[C@H]1O[C@@H](n2cnc3c(NCCc4ccccc4)ncnc32)[C@H](O)[C@@H]1O | 0.0125 s⁻¹ | 99.6 µM |
| Cc1ccc(-n2nc(C(C)(C)C)cc2NC(=O)Nc2ccc(OCCN3CCOCC3)c3ccccc23)cc1 | 0.266 s⁻¹ | 2050 µM |
